Laboratory results as given in PubChem BioAssay AID2101 (National Center for Advancing Translational Sciences (NCATS), 2009).
In all, about 330,000 compounds went through this assay and about 300 (0.091%) were called active. Inconclusive results, whose numbers are uncertain, are shown with a selection of clear calls. Calls follow the shape of the dose curve; as a rule, active = well fitted inhibition curve with a large enough effect; inconclusive = small, poorly fitted or top-dose-only effect, or effect the other way, or another doubt; inactive = no such curve, though single readings can be large or run the other way. Potencies of inconclusive entries are left out as doubtful fits.

Biological target: Lysosomal acid glucosylceramidase (Homo sapiens) (UniProt P04062)
Assay: qHTS Assay for Inhibitors and Activators of N370S glucocerebrosidase as a Potential Chaperone Treatment of Gaucher Disease;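 as to activity change, negative = inhibition: 0% = full enzyme activity and -100% = no enzyme basal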
Conditions: N370S GC spleen homogenate, 4MU-glucoside fluorescence; activity change, negative = inhibition: at 59.4 µM (top of the series) unless noted
Potency is read from the fitted curve at half-maximal effect.

Row | SMILES | Potency | activity change, negative = inhibition
1 | NC(=O)C1=C[C@@H](c2ccc(Br)cc2)C[C@@H](OCc2ccc(CO)cc2)O1 | inconclusive [activator, partial curve] | –
2 | COc1cc(CNC(C)c2ccccc2)cc(Cl)c1OCC(=O)Nc1ccccc1 (configuration not stated) | inconclusive [inhibitor, single point] | –
3 | Cc1cc(N2CCN(c3ccccc3)CC2)nc(-c2ccccc2)n1 | inconclusive [inhibitor, single point] | –
4 | CCSc1nnc(NC(=O)[C@@H](NC(=O)c2ccccc2)C(C)C)s1 | inconclusive [activator, partial curve] | –
5 | CCCCCCC(=O)N1CCC(c2nc3c(nnn3Cc3ccccc3Cl)c(=O)[nH]2)CC1 | inconclusive [inhibitor, single point] | –
6 | COCCNc1cc(C)c(C#N)c2nc3ccccc3n12 | inconclusive [activator, partial curve] | –
7 | CC(C)Cc1c(O)nc(SCC(=O)Nc2ccc3c(c2)CCC3)[nH]c1=O | inconclusive [activator, partial curve] | –
8 | CC(=O)n1cc(N(C(=O)CCl)c2ccc([N+](=O)[O-])cc2)c2ccccc21 | inconclusive [inhibitor, partial curve] | –
9 | CCC(C(=O)NC1CCCC1)N(C(=O)Cn1nnc(-c2ccc(C)o2)n1)c1ccc(OC)cc1 (configuration not stated) | inconclusive [inhibitor, full curve, poor fit] | –
10 | O=C(NCC1CCCO1)c1cc2c([nH]c3ccccc32)c(-c2ccc(F)cc2)n1 (configuration not stated) | inconclusive [activator, partial curve] | –
11 | C=CCOC(=O)C1=C(C)NC(C)=C(C(=O)OCC=C)C1/C=C/c1ccccc1 | inconclusive [activator, single point] | –
12 | CCN(CC)c1ccc(/C=N/NC(=O)c2c(-c3ccccc3)noc2C)cc1 | inconclusive [activator, single point] | –
13 | Cc1ccc(C(=O)c2c3ccc([N+](=O)[O-])cc3[n+]([O-])n2CCCN)cc1 | inconclusive [inhibitor, single point] | –
14 | Cc1cc2[nH]c(=O)c(=O)[nH]c2cc1S(=O)(=O)N1CCC(C)CC1 | inconclusive [inhibitor, partial curve] | –
15 | CSCCC(NC(=O)c1ccccc1)C(=O)NCCc1ccccc1 (configuration not stated) | inconclusive [inhibitor, full curve, poor fit] | –
16 | Cc1ccc(-c2nc(Nc3cccc(O)c3)c3ccccc3n2)cc1 | inconclusive [inhibitor, partial curve] | –
17 | COc1ccc(CCN(C)Cc2ccc(OCc3ccccc3)c(OC)c2)cc1OC | inconclusive [inhibitor, single point] | –
18 | CC(C)(C)C(=O)N1N=C(c2cccc(NS(C)(=O)=O)c2)CC1c1cccs1 (configuration not stated) | inconclusive [inhibitor, single point] | –
19 | COc1cc(OC)cc(C(=O)N[C@H](C(=O)OCC(=O)Nc2ccc(F)c(F)c2)C(C)C)c1 | inconclusive [activator, partial curve] | –

Row | SMILES | Potency | activity change, negative = inhibition
20 | CC(=O)c1cnc2c(-c3ccc(Cl)cc3)cnn2c1C | inactive | –
21 | CC(C)(C)C(=O)CSc1ncnc2sc3c(c12)CCC3 | inconclusive [activator, single point] | –
22 | CC1(C)CC(=O)C(C(C2=C(O)CC(C)(C)CC2=O)c2ccc(O)c([N+](=O)[O-])c2)=C(O)C1 | inactive | –
23 | O=c1cc(N2CCCCC2)c(-c2ccccc2)nn1Cc1ccc(F)cc1 | inconclusive [activator, partial curve] | –
24 | Cc1ccccc1N(CC(=O)NC1CCCCC1)C(=O)CNC(=O)c1cccs1 | inconclusive [inhibitor, single point] | –
25 | Cc1ccc(OCCN2CCN(C(=O)CCC(=O)Nc3nnc(CC(C)C)s3)CC2)cc1 | inconclusive [inhibitor, single point] | –
26 | O=C(CNC(=S)NC(=O)c1ccccc1Br)c1ccccc1 | inactive | –
27 | CC(C)CC(CSc1ccc(Br)cc1)N1CCN(C)CCC1=O (configuration not stated) | inconclusive [inhibitor, single point] | –
28 | COC(=O)C1=CN(C2CCCCC2)C=C(C(=O)OC)C1c1ccc2c(c1)OCO2 | inconclusive [activator, partial curve] | –
29 | CC1CCc2c(sc(NC(=O)C3CCCO3)c2C#N)C1 (configuration not stated) | inactive | –
30 | CCOc1ccc(Cc2nc(N)nc(N)n2)cc1 | inactive | –
31 | COc1ccc([C@@H]2[C@@H]3C(=O)N(C(C)(C)C)C(=O)[C@@H]3[C@]3(C)C(=O)N(c4cccc(C)c4)C(=O)N23)cc1 | inconclusive [inhibitor, full curve, poor fit] | –
32 | Cc1ccc(C(=O)N/C(=C\c2ccc(-c3ccccc3[N+](=O)[O-])o2)C(=O)NCCCN2CCOCC2)cc1 | inconclusive [inhibitor, single point] | –
33 | Cc1ccc2c(c1)C(CCN)C(=O)N2Cc1ccccc1 (configuration not stated) | inconclusive [inhibitor, partial curve] | –
34 | O=[N+]([O-])c1cc(S(=O)(=O)C(F)(F)F)ccc1Sc1nc2ccccc2[nH]1 | inactive | –
35 | COc1cccc(C2CN(c3ccc(F)cc3F)N=C2c2cccs2)c1OC (configuration not stated) | inconclusive [activator, partial curve] | –
36 | COc1ccc(N(C(=O)c2snc(C(N)=O)c2N)C(C(=O)NCc2ccccc2)c2ccc(O)cc2)cc1 (configuration not stated) | inactive | –
37 | Cc1c(C)n(Cc2ccccc2)c2ccc(C(=O)NCCN3CCOCC3)cc12 | inconclusive [inhibitor, partial curve] | –
38 | Cc1oc(-c2ccccc2F)nc1CSCC(=O)NC1CCC(C)CC1 (configuration not stated) | inconclusive [activator, partial curve] | –

Row | SMILES | Potency | activity change, negative = inhibition
39 | COc1ccc(/C=N/NC(=O)NC23CC4CC(CC(C4)C2)C3)c(OC)c1 | inconclusive [activator, full curve] | –
40 | CCOc1ccc(-c2nnc3ccc(SCC(=O)Nc4nc5ccccc5s4)nn23)cc1 | inconclusive [activator, full curve] | –
41 | CC(=O)c1cccc(NS(=O)(=O)c2ccc(C(=O)Nc3ccccc3)cc2)c1 | inconclusive [inhibitor, single point] | –
42 | COc1cc(/C=C(\C#N)C(=O)c2ccc(O)c(O)c2)cc(I)c1O | inconclusive [inhibitor, partial curve, poor fit] | –
43 | COc1ccc([C@H]2[C@H](C(=O)OC(C)(C)C)N3N=Cc4ccccc4C3C23C(=O)c2ccccc2C3=O)c(OC)c1 (some centres not stated) | inconclusive [activator, partial curve] | –
44 | CC(C)N(C(=O)COC(=O)c1cc(Cl)cc(Cl)c1N)C(C)C | inconclusive [activator, partial curve] | –
45 | CCOc1ccc(C(C(=O)NCC2CCCO2)N(Cc2cccnc2)C(=O)c2snc(C(N)=O)c2N)cc1 (configuration not stated) | inconclusive [activator, single point] | –
46 | O=C(CN1CCCC1c1ccc2c(c1)OCCO2)NC(=O)Nc1ccccc1F (configuration not stated) | inconclusive [activator, single point] | –
47 | COC(=O)C(CC(C)C)NC(=O)c1cc(OC)c(OC)c(OC)c1 (configuration not stated) | – | inconclusive: 29.1% [activator]
48 | Cc1ccc(-c2cc(C(=O)O)c3sc(N4CCCCC4)nc3n2)cc1 | inconclusive [activator, partial curve] | –
49 | CC(=O)c1cc(CC(=O)N2CCc3c([nH]c4ccccc34)C2c2ccccn2)cs1 (configuration not stated) | inconclusive [activator, partial curve] | –
50 | Cc1cccc(N=C2Sc3nc4c(C)c(C)ccc4cc3CN2CCN2CCOCC2)c1 | inconclusive [inhibitor, partial curve] | –
51 | CCn1ccnc1CN(C)Cc1cn(-c2cc(C)ccc2C)nc1-c1ccccc1 | active: 14.1 µM | –
52 | CC(C)C[C@H](NC(=O)[C@H](CC(C)C)NC(=O)[C@@H](Cc1c[nH]c2ccccc12)NC(=O)[C@H](Cc1ccccc1)NC(=O)[C@@H](Cc1c[nH]c2ccccc12)NC(=O)[C@H](CCC(N)=O)NC(=O)[C@H](CCC(N)=O)NC(=O)[C@@H]1CCCN1C(=O)[C@H](CCCCN)NC(=O)[C@@H]1CCCN1C(=O)[C@@H](CCCNC(=N)N)NC(=O)[C@@H]1CCCN1C(=O)CNC(=O)[C@H](CC(C)C)NC(=O)[C@H](CC(C)C)NC(=O)[C@H](Cc1ccc(O)cc1)NC(=O)CNC(=O)[C@H](C)NC(=O)[C@H](CO)NC(=O)[C@H](CC(N)=O)NC(=O)[C@H](CC(C)C)NC(=O)[C@@H](NC(=O)[C@H](Cc1c[nH]c2ccccc12)NC(=O)CN)[C@@H](C)O)C(N)=O | inactive | –
53 | CC(=O)Nc1ccc(N/C=C/C(=O)C(C)(C)C)cc1 | inactive | –
54 | C=C(C)COc1ccc(-c2n[nH]c(C)c2-c2ccc(OC)cc2)c(O)c1 | inconclusive [activator, partial curve] | –
55 | CC(C)c1cc(=O)n2c(nc3ccccc32)[nH]1 | inconclusive [activator, single point] | –
56 | Cc1cccc2c(=O)c(C(=O)NCc3ccc(F)cc3)c[nH]c12 | inconclusive [activator, partial curve] | –
57 | COC(=O)[C@@]1(Cc2ccc(OC)cc2)[C@H]2c3cc(C(=O)N(C)C)n(Cc4ccc(S(C)(=O)=O)cc4)c3C[C@H]2CN1C(=O)c1ccccc1 | inconclusive [inhibitor, single point] | –
